According to the supplement of paper PMC3334620:
Over roughly 33,000 sequences, “E-score (-0.5 to 0.5)” has its median near -0.035; the highest 2% begin near 0.35. Some of the results follow.

Biological target: T1, Pdr3 (UniProt P33200)
T1 sequence: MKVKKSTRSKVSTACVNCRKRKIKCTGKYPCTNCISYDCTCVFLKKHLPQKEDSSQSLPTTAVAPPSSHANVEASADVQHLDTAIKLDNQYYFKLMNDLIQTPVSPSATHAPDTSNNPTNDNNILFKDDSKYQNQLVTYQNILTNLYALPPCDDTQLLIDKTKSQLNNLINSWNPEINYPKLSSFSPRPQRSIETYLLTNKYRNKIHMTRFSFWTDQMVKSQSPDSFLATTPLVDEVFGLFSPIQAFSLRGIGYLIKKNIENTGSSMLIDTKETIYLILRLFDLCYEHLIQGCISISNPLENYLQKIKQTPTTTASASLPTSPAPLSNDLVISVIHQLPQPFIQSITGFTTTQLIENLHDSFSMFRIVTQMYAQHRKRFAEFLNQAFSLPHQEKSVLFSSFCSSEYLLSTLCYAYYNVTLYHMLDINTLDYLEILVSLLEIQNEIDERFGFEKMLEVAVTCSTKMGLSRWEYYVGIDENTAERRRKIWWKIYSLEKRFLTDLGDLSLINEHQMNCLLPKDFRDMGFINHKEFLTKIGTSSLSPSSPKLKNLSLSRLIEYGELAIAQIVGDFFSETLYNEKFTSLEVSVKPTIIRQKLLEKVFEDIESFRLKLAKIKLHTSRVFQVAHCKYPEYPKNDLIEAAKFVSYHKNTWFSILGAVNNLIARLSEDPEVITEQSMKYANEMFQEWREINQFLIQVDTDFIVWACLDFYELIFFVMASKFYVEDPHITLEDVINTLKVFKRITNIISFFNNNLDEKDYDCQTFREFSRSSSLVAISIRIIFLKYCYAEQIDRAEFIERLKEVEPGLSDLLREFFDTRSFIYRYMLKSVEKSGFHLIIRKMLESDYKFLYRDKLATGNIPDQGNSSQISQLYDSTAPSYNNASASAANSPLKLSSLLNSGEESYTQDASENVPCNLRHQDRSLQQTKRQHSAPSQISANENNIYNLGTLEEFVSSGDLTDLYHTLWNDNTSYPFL
Assay: PBM E-score (8-mer binding enrichment) (E-score (-0.5 to 0.5)); higher = stronger / more preferred TF binding; most listed sequences are background and not binding sites
Conditions: protein concentration: 200 nM; construct: GST-full length
In short: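 Each ungapped eight-base word and its reverse complement, pooled, received an E-score from the Universal PBM Analysis Suite. Underlying scans, normalised with masliner, recorded fluorescent anti-GST bound to GST-tagged yeast transcription factors. These were applied at about 100-200 nM to universal all-10-mer Agilent arrays double-stranded by primer extension.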

Row | Sequence | PBM E-score
1 | CTAAGATC | -0.0406
2 | CCCAATAG | -0.244
3 | AGCGTTTC | -0.151
4 | GGTAGGTA | -0.088
5 | GCGTCCGA | 0.153
6 | ATCCTGTG | -0.185
7 | GATAGACA | -0.162
8 | CCAGTCGG | 0.144
9 | ATGGGCGG | 0.244
10 | AATAATTA | 0.11
11 | AAGTATGG | -0.0779
12 | ATTAGTAC | -0.0759
13 | CAGCCCCC | -0.248
14 | CTGGGAGA | 0.00461
15 | AGCTGGGG | -0.0684
16 | GTACCGAA | -0.0418
17 | ACGAATTC | 0.0596
18 | CGCACCAA | 0.0849
19 | GGGATCGA | 0.0956
20 | ACCGTACC | 0.0374
21 | GTCCATCA | -0.105
22 | GTAAGGCA | -0.235
23 | AGGTCCCG | 0.322
24 | CACGGCTG | 0.113
25 | CCCCCGGC | 0.037

Row | Sequence | PBM E-score
26 | ATATGGAG | 0.0651
27 | GATCCCGA | 0.317
28 | ATGCAGAG | -0.104
29 | ATGGCGAA | 0.16
30 | GACAACTC | 0.139
31 | ACCCCCTC | -0.296
32 | CCATGGTC | -0.143
33 | AAAAACAA | 0.0667
34 | CGTCCTCA | -0.154
35 | GGCTGAGA | -0.00025
36 | CGGTCAAA | 0.146
37 | GGAGGAAC | 0.139
38 | ATAAGGCG | -0.0262
39 | AGCTCAAA | 0.0219
40 | CGACGTGA | -0.036
41 | ATCTCAAG | 0.00406
42 | AGGCTTGA | -0.135
43 | CAAGACTC | -0.0856
44 | CCGGTCAA | 0.233
45 | CGGCACCC | 0.156
46 | CATCGCGA | 0.0669
47 | CCAGTTCA | 0.00274
48 | GAGGATAC | -0.18
49 | CCTCAGTA | -0.115
50 | AATCATTA | -0.213

Row | Sequence | PBM E-score
51 | CAGGTGGC | -0.197
52 | ATAGTTGC | 0.0259
53 | ACTTGAAT | -0.0436
54 | ACCAGCCG | 0.196
55 | CGTAGTCA | -0.0814
56 | TACAGAAA | -0.0516
57 | CGACCTCC | 0.208
58 | AGGGGAAG | -0.231
59 | CCTGTGTC | -0.192
60 | CGTAGTAC | -0.0772
61 | GATCGGGA | 0.171
62 | CTAAATAG | -0.161
63 | AGTCAATG | -0.257
64 | AAAGGGGT | -0.236
65 | CCTACTTC | -0.126
66 | ATATACAC | -0.00957
67 | AACAACGG | 0.187
68 | CCGCTCAA | 0.142
69 | GCCTCCGA | 0.139
70 | ATCAGCGC | 0.207
71 | AGACACTG | -0.147
72 | CTGCATCA | -0.0534
73 | GCTGGGCC | -0.195
74 | CGGGAATC | 0.334
75 | TATTCACA | 0.13

Row | Sequence | PBM E-score
76 | CACTCGCG | 0.0224
77 | TAGTTTGA | -0.0633
78 | CTCGTACA | -0.121
79 | ACGTGTGA | -0.23
80 | ATAACGCC | 0.0768
81 | ACTGTTCG | -0.0931
82 | ATCGCGTA | -0.0847
83 | AACTCTTC | -0.154
84 | TAAACGTA | -0.137
85 | AACCGGTG | 0.235
86 | ACCTATGG | -0.133
87 | CTATCCCA | -0.0312
88 | GAGAAACC | 0.0126
89 | AGACGAGG | -0.119
90 | CCTCCTTA | -0.298
91 | AGTAATTA | -0.0198
92 | CGGCCCAC | -0.0237
93 | GGCATCGA | -0.0672
94 | CCCTCCGC | 0.163
95 | AATACACA | -0.0767
96 | ACTTCAGA | -0.0406
97 | TAGCGCCA | -0.218
98 | CAACTGAG | -0.0168
99 | GACAACCA | -0.00959
100 | CGGTCAAC | 0.176

Row | Sequence | PBM E-score
101 | AGACGCCG | 0.153
102 | GAAGCCGA | 0.287
103 | TAGGGATA | -0.113
104 | CTGGTTAA | -0.0299
105 | CCTCTTAG | 0.0663
106 | ATGTGGAA | 0.0594
107 | GGAATAAC | 0.31
108 | ACGCGGAT | 0.244
109 | ATTTCCCG | 0.369
110 | TAGAGGAA | -0.0807
111 | ATCACGCA | 0.0202
112 | AAAGCGCT | 0.163
113 | GTAGCGGA | 0.251
114 | CGTCGGGA | 0.309
115 | CTGGTCGC | 0.0352
116 | ATTGGCAA | -0.0742
117 | CGTCACTA | 0.106
118 | CCAATCAG | -0.225
119 | AGCGGCAG | 0.0528
120 | CCGTGTTA | 0.145
121 | ACCTTTAG | -0.134
122 | ACTAAGGC | -0.179
123 | ATGTACTA | -0.0639
124 | CCTGTTAA | -0.127
125 | ATAGAACA | -0.059

Row | Sequence | PBM E-score
126 | AAAGGTCT | -0.263
127 | AGAGTGTA | -0.0716
128 | ATTGTTAA | -0.0968
129 | CACCGCTA | -0.118
130 | CTGTTAAG | -0.337
131 | GTCGATTA | 0.00988
132 | TCACGTAA | -0.224
133 | CGGCCAAA | 0.208
134 | TCCATGAA | -0.00849
135 | CGAGCAAC | 0.0747
136 | GGTTACCA | 0.137
137 | GCCCCCGC | 0.149
138 | ACGGCCAT | -0.0757
139 | GACGCTGA | -0.184
140 | GCTTGACA | -0.0842
141 | AACTGTGT | 0.0557
142 | AGCAAGCA | -0.241
143 | CCGGCTTC | 0.322
144 | GAGGGTGC | -0.232
145 | AAGTTGAT | 0.00488
146 | CCTCTCTC | -0.118
147 | AGTGTCTG | -0.1
148 | ACTGATGC | -0.0477
149 | CATAATCA | -0.0129
150 | TCGTGCAA | -0.0503

Row | Sequence | PBM E-score
151 | CGCATGAC | 0.0259
152 | ACCCGGTC | 0.199
153 | ACTTATTC | 0.124
154 | AAGCTTCG | -0.00451
155 | AATTAATA | 0.254
156 | ATAATATA | 0.147
157 | ATCACGTG | 0.0284
158 | CGCTCCAG | -0.0694
159 | GAGTGCGC | 0.0772
160 | ATATGATA | 0.209
161 | TCAGAGCA | -0.138
162 | AAATTCCA | 0.0847
163 | GCACGGCA | 0.103
164 | GGGAGGTA | 0.0951
165 | ACAACAAC | -0.119
166 | ACTCAAAT | -0.0697
167 | GACTTAAC | -0.35
168 | ACGCTGTG | -0.112
169 | AGGTGTCG | -0.116
170 | CTGGCCCA | -0.232
171 | AGCCGCTA | -0.0934
172 | CATCAGGA | 0.17
